Measurements taken from the supplement of paper PMC3334620.
Whole data set: some 33,000 sequences, median “E-score (-0.5 to 0.5)” near -0.017, cut for the highest 2% near 0.3. This is one part of the list.

Biological target: T1, Sut1 (UniProt P53032)
T1 sequence: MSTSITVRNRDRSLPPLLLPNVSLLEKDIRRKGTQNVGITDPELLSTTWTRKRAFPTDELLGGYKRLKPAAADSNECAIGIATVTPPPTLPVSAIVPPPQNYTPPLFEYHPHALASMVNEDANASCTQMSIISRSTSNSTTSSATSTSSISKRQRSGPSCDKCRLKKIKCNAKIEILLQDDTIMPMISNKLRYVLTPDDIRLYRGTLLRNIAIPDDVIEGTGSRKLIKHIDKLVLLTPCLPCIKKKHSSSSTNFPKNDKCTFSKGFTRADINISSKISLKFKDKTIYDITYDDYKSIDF
Test: PBM E-score (8-mer binding enrichment) (E-score (-0.5 to 0.5)); higher = stronger / more preferred TF binding; most listed sequences are background and not binding sites
Settings: protein concentration: 200 nM; construct: GST-full length
Protocol: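 Universal 'all 10-mer' protein binding microarrays (Agilent AMADID 015681) probed with GST-tagged S. cerevisiae TFs (full-length or DBD) made by in vitro transcription/translation (PURExpress), about 100-200 nM. Bound TF was detected with fluorescent anti-GST. Each ungapped 8-mer (which stands for itself and its reverse complement) is scored by the PBM enrichment score (E-score), a modified Wilcoxon-Mann-Whitney statistic from -0.5 to +0.5, computed with the Universal PBM Analysis Suite. Scale: above 0.35 generally sequence-specific binding.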

Sequence | PBM E-score
GGTTACAA | 0.176
AAAGCACA | 0.0274
AAACTAGC | -0.0714
GGATAAAC | 0.2
CGCAGGTC | -0.134
CCCCGTGA | 0.0534
GAGAATAA | 0.11
AAGAAATC | 0.0735
AATGGGGG | -0.271
AGTTCGAT | 0.181
AAGAAAGC | 0.126
ACAGCCAT | -0.174
ACGGTAAG | -0.00505
GCGGGTAC | -0.0833
ACAACACA | 0.00311
CAACCGAA | 0.147
AGAATGGC | 0.161
TATCCTCA | -0.0457
AGGCAACT | 0.151
AACGAAAT | 0.204
AAGGGACC | -0.209
CCTCATAG | -0.008
AACTGTAT | 0.214
GCTAGTAC | -0.14
CCAGGAAG | -0.111

Sequence | PBM E-score
TCATCGCA | -0.0951
ACTAGCCC | -0.0317
AGGGAGTG | -0.295
AGCACGTG | -0.0228
AATAGTGA | 0.0686
AGAGGCAG | -0.319
CGGCTACC | -0.0748
AATGCGTC | -0.218
CAGAGATA | 0.0489
GTTCCTTA | -0.0771
ACGGGAAG | -0.197
CAGAGTAA | -0.165
AGAGCCTC | -0.222
CTGGCTCC | -0.17
AGTTCGGA | 0.352
TGTCTTAA | -0.039
ATCACTAC | -0.0951
ATTTGCAA | 0.146
CCACCTGA | -0.0496
ACGGCCTG | -0.156
GGAACGCC | -0.153
AAAATCAA | 0.175
AACACCGC | -0.0108
GCAATCTA | 0.101
ACTGCGTG | -0.186

Sequence | PBM E-score
TGATAACA | 0.234
CAGCGATC | -0.215
GCAGCTCA | -0.0107
CAGGCGGA | 0.163
GTCACTCA | 0.127
TAAAGAGA | 0.19
AGATAAAT | 0.273
GACACCAC | -0.198
AATGTAGC | -0.142
ACATACTC | 0.0814
CGTAGTGA | -0.176
ACGGCAGC | -0.0498
AGGTCGCA | -0.0454
GTTTCAAA | 0.212
AGGAGGGA | -0.18
TGCAGTAA | -0.137
ACCGTGGG | -0.237
CATCGTGG | -0.226
ACTAGGCA | -0.15
GTCCGGAA | 0.402
CACGCACG | -0.158
ACAGAGAT | 0.0393
ATTTTGCC | 0.0339
ATTGGGTG | 0.129
GTCCTCGA | -0.119

Sequence | PBM E-score
ACAGAGCA | 0.0566
ACTCATTA | 0.151
ATATTGCG | -0.00328
AATATCTC | 0.196
CAACGCGC | 0.102
ACGGTGAT | -0.0435
AGCAACAA | 0.175
TAATCCCA | -0.0296
ATCCGTCG | 0.0307
GATTGGAC | -0.0604
AATACCCC | -0.0993
CGCCTCAG | -0.158
ATTTGATC | 0.025
CCTATCTA | -0.0945
ATGGAATA | 0.247
AAAACCAG | -0.129
CCTAGAAC | -0.0639
AGTTGGAG | 0.0595
ACAACGCA | -0.0197
CCACTAAA | 0.00512
GAACTGAC | -0.197
CTGGTCTC | -0.254
ACGTTGCC | -0.283
ACCCATTG | -0.0815
GCAACCAC | -0.0245

Sequence | PBM E-score
CGGTGAGA | 0.0413
AGACCCGG | 0.105
ACCCGAGA | 0.0446
ACTGTGCT | -0.129
CAATACAC | 0.0377
ATGTCCCG | 0.0332
GGGCCTAC | -0.251
CACTGGCG | -0.217
CCTACAAA | 0.128
GCACCACC | -0.122
GCCGTAGC | -0.249
CGTCAGAG | -0.13
GACGACAA | 0.0999
AAACGCTA | 0.0761
GTGTTACA | 0.185
AGGCGATA | -0.0566
TCACGGAA | 0.238
AGCCGCCA | -0.0466
CGGGCTCA | -0.138
AAGCATCC | -0.13
CTATTAAG | 0.0958
CTGACAGA | 0.045
CGGAGACC | 0.315
AGTAAAAT | 0.177
ATTGGAAA | 0.0528

Sequence | PBM E-score
AACCACAC | 0.0208
TATCAATA | 0.0986
GTACCTTA | 0.149
CAATGCAA | -0.0619
GCCTAACA | -0.0562
ATGATACC | 0.0548
AACGCTGC | -0.192
AGGGAGAT | -0.354
AAGTGAAC | -0.0118
CAAATGTG | 0.127
GTGCTCCA | -0.191
ACAAAAGC | 0.0815
GCACACAA | 0.112
AAGTGTCA | -0.177
GCTCGTAA | -0.0601
ACTCGGCA | 0.018
GCCACTAA | -0.00433
AATCCAAG | 0.0535
TACCTATA | 0.00304
TCCGGACA | 0.415
AAGTAAAA | 0.113
CGCCGCCA | 0.0467
CCGTACCC | -0.18
AAAACCTA | 0.146
AAGCCGAA | 0.182

Sequence | PBM E-score
ACTGACTA | -0.136
GTTTAATA | 0.215
ACCTCTAT | -0.0477
GATCGCGA | 0.0749
TGACGAAA | 0.0812
TACGGAGA | 0.32
CTGTACAA | 0.0205
CCGGTAAG | 0.2
TAACGCGA | -0.072
GCGCTCTA | 0.00585
ATGGGGAG | -0.155
GGTTTCGA | -0.16
TATCTAAA | 0.0819
AAAAAGCC | 0.272
AGATTGTA | 0.131
TACACGGA | 0.335
GCCACAGC | -0.254
ATCTGTAG | -0.0133
AAGCGACG | -0.161
AACTCAAA | 0.0515
CAGGGCAC | -0.258
GCAGTACC | -0.0523
AGTAATAG | 0.063
AGGGGCCA | -0.322
CTCGACTA | -0.174

Sequence | PBM E-score
CGATGGCC | -0.111
GTAGGTGA | -0.194
CGTAAGCC | -0.065
TCAGATGA | 0.0689
CCCACTAG | -0.248
GTGAGCTA | -0.0193
AAAACGTC | 0.0907
CACATCGC | -0.243
TATGTACA | 0.0901
GTCAAAAC | 0.0199
GATAGTAA | 0.145
AGGCCCGC | -0.133
AAAGCCAC | 0.111
CTCTGAAG | -0.133
CATGAGAC | -0.0808
ACTGCCTC | -0.21
CAAGACCG | 0.0398
AACCGTCT | -0.234
TGGCCTAA | -0.22
ATCATCCA | -0.0546
TGCATCAA | 0.0695
GGCGCATA | -0.156
ATATAAAG | 0.177
CTGGAGAC | -0.209
TGACTGCA | -0.221

Sequence | PBM E-score
AAAGGACG | 0.00144
AAAAATTG | 0.122
TGGCATAA | 0.214
CGACATAG | -0.154
GGGGCGAC | -0.168
CGTACGCA | -0.00898
TCCTGCAA | -0.11
ACATCGCC | -0.112
CGTTCTTA | -0.0311
CAATGCCA | 0.00632
AACCATTC | 0.0582
TAGAAGAA | 0.104
CGCCATAC | -0.239
AGTTTTAT | 0.211
CCGAAGTA | 0.203
CAAATAAC | 0.169
AATCAACT | 0.183
AGTTACAC | 0.0598
GCAGGATA | -0.181
